US20150320880A1, “ANTIBODY DRUG CONJUGATES” (NOVARTIS AG, priority 2013, published 2015)

Columns and labels:
[1] = target: T1, human cKIT ECD (Homo sapiens, UniProt P10721); assay: SPR (Biacore 2000) affinity measurement; format: binding; conditions: 25° C.
T1 construct: Human cKIT tr. variant 2, residues 26-520-TAG; made in house; host or cells: HEK293 derived cell lines (293FS), transient transfection
Procedure: (§1) Affinity of the antibodies to cKIT species orthologues and also to cKIT was determined using SPR technology using a Biacore® 2000 instrument (GE Healthcare, Pittsburgh, Pa.) and with CM5 sensor chips.
(§2) Briefly, HBS-P (0.01 M HEPES, pH 7.4, 0.15 M NaCl, 0.005% Surfactant P20) supplemented with 2% Odyssey® blocking buffer (Li-Cor Biosciences, Lincoln, Nebr.) was used as the running buffer for all the experiments. The immobilization level and analyte interactions were measured by response unit (RU). Pilot experiments were performed to test and confirm the feasibility of the immobilization of the anti-human Fc antibody (Catalog number BR100839, GE Healthcare, Pittsburgh, Pa.) and the capture of the test antibodies.
(§3) For kinetic measurements, the experiments were performed in which the antibodies were captured to the sensor chip surface via the immobilized anti-human Fc antibody and the ability of the cKIT proteins to bind in free solution was determined Briefly, 25 μg/ml of anti-human Fc antibody at pH 5 was immobilized on a CM5 sensor chip through amine coupling at flow rate of 5 μl/minute on all two flow cells to reach 10,500 RUs. 0.1-1 μg/ml of test antibodies were then injected at 10 μl/min for 1 minute. Captured levels of the antibodies were generally kept below 200 RUs. Subsequently, 3.125-50 nM of cKIT receptor extracellular domains (ECD) were diluted in a 2-fold series and injected at a flow rate of 40 μl/min for 3 min over both reference and test flow cells. Table of tested ECDs is listed below. Dissociation of the binding was followed for 10 min. After each injection cycle, the chip surface was regenerated with 3 M MgCl2 at 10 μl/min for 30 s.

[2] = target: mouse cKIT ECD; assay: SPR (Biacore 2000) affinity measurement; format: binding; conditions: 25° C.
Procedure: as §1, §2, §3

[3] = test system: MO7e cells grown in GM-CSF; assay: Mo7e proliferation in GM-CSF (SCF-independent), Example 17; format: cell-based; conditions: 10 ng/ml GM-CSF, 5 days
Procedure: To evaluate the potential antagonistic properties of the naked antibodies and the ability of the antibody drug conjugates (ADCs) to inhibit the proliferation of a cKIT-expressing cell line, MO7e (DSMZ, Catalog # ACC-104, Braunschweig, Del.) were grown in the presence or absence of cKIT ligand, Stem Cell Factor (SCF), for survival. MO7e cells were grown in either 10 ng/ml human granulocyte-macrophage colony-stimulating factor GM-CSF (R&D Systems Cat#215-GM, Minneapolis, Minn.) or 10 ng/ml human Stem Cell Factor SCF (R&D Systems Cat#255-SC) prior to seeding in 96 well plates (Costar Cat #3904, Corning, Tewksbury, Mass.) at 5000 cells/well in 100 μl dilution medium. A duplicate plate was generated for a day 0 measurement and all plates were incubated in a tissue culture incubator at 37° C. with 5% CO2 overnight. […] Assay plates were shaken gently for 20 min and the resulting luminescence intensity was measured using a Perkin Elmer 1450 Microbeta TriLux® plate reader (Perkin Elmer, Waltham, Mass.). […] Following this incubation period, relative cell viability was determined via the addition of Cell titer Glo reagent as described above. The effect of the ADCs on cell proliferation was calculated using the average of the duplicates as follows: (% Inhibition=(ADC or Ab treated)/(untreated)*100) The % inhibition data was fitted to a 4-parameter logistic equation and IC50 values were determined.

[4] = test system: surface cKIT on GIST-T1 cells; assay: cKIT Ab-mediated internalization by flow cytometry; format: cell-based; conditions: 10 μg/ml, 30 min to 24 hr at 37° C.
Procedure: The kinetics of cKIT antibody mediated internalization was evaluated by treating with antibody in a cell monolayer using a temperature shift method and flow cytometry readout. GIST-T1 (kindly provided by Dr. Takahiro Taguchi, Kochi U., Japan) cells were seeded at 2.5×10E5 cells/well in five 12-well tissue culture treated plates (BD Falcon 353043). The cells were incubated in a tissue culture incubator at 37° C. with 5% CO2 overnight. The following day medium was removed and replaced with 450 μl fresh medium. […] All cells were incubated for 1 hr on ice, followed by two washes with 1 mL 1× Phosphate buffered saline (PBS) and resuspended in 500 μl cell culture medium. Plates #2-5 were transferred to 37° C. and harvested at time points; 30 min, 2 hr, 4 hr and 24 hr at 37° C. with 5% CO2. 100 μl of cell dissociation buffer (Gibco Cat#13150-016, Life Technologies, Carlsbad, Calif.) was added to plate#1 (4° C. binding control) and incubated at 37° C. until cells were detached. Cells were neutralized with 100 μl of medium and transferred to a 96 well V-bottom tissue culture treated plate (Costar 3894). […] The following day, all samples were analyzed using the BD FACSCanto II® equipment using a HTS system (BD Biosciences, San Jose, Calif.). Samples were analyzed with FlowJo software to obtain the Geometric Mean values of fluorescence for the Phycoerythrin channel. […]

[5] = test system: cKIT on normal human CD34+ bone marrow cells; assay: cKIT receptor internalization on bone marrow cells by flow cytometry; format: cell-based; conditions: 10 μg/ml, 0-240 min
Procedure: In another internalization experiment, the impact of NEG085 on cKIT receptor levels was evaluated on human bone marrow cells. Normal human CD34+ bone marrow cells (All Cells, Cat #ABMO22F, Emeryville, Calif.) were thawed and washed with 10 mL of StemPro®-34 SFM medium (Gibco, Life Technologies, Carlsbad, Calif.). Cells were resuspended in 1.25 mL of StemPro-34 SFM medium at 4×10^5 cells/mL and split equally into two tubes. […] 100 μL of cell suspension was collected at each timepoint (0, 15, 30, 60, 120, and 240 min) from each condition, and placed into an ice cold collection tube to cease internalization. Cells were washed with 3 mL of ice-cold FBS stain buffer and resuspended in 100 μL of FBS stain buffer. […] of 104D2-BV421 (mouse anti-human IgG1 k, Biolegend, San Diego Calif.) was added to each tube and incubated on ice for 1 hour. Following another wash with FBS stain buffer, total cKIT receptors were measured by flow cytometry by assessing the mean fluorescence intensity of BV421 on a FACS Canto II® (BD Biosciences, San Jose, Calif.).

[6] = test system: GIST430 tumor xenograft
[7] = Day 28, 10 mg/kg Single Dose IV

T1 sequence (P10721 with tags, fused parts or gaps isoform P10721-2): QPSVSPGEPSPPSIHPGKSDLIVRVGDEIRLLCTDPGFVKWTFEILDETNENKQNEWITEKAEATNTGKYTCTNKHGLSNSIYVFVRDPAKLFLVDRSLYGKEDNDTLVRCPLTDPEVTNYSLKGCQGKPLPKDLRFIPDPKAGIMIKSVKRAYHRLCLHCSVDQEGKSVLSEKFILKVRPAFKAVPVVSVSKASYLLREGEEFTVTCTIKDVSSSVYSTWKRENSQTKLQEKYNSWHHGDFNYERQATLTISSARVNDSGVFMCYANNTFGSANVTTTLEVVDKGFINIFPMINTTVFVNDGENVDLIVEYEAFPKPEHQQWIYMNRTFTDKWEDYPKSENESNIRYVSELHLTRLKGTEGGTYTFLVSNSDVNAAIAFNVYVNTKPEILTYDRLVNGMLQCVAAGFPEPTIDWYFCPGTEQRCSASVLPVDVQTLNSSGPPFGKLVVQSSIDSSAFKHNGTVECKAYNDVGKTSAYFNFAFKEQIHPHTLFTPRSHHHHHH

B1: NEG085 (antibody)
heavy: EVQLVESGGGLVQPGGSLRLSCAASGFAFSGYYMAWVRQAPGKGLEWVANINYPGSSTYYLDSVKGRFTISRDNAKNSLYLQMNSLRAEDTAVYYCARGDYYGTTYWYFDVWGQGTTVTVSSASTKGPSVFPLAPSSKSTSGGTAALGCLVKDYFPEPVTVSWNSGALTSGVHTFPAVLQSSGLYSLSSVVTVPSSSLGTQTYICNVNHKPSNTKVDKRV[human IgG1 Fc omitted here]
light: DIQMTQSPSSLSASVGDRVTITCRASQSISSYLNWYQQKPGKAPKLLIYYTSRLQSGVPSRFSGSGSGTDFTLTISSLQPEDFATYYCQQGRRLWSFGGGTKVEIKRTVAAPSVFIFPPSDEQLKSGTASVVCLLNNFYPREAKVQWKVDNALQSGNSQESVTEQDSKDSTYSLSSTLTLSKADYEKHKVYACEVTHQGLSSPVTKSFNRGEC
[1]
  Affinity human cKIT (nM): nanomolar level
[2]
  Affinity mouse cKIT (nM): Not reactive
[3]
  effect on cell proliferation: no detrimental effect on cell proliferation
[4]
  internalization of surface cKIT: rapidly internalized
[5]
  internalization of cKIT: rapidly internalized
[6]; [7]
  Mean change of tumor volume (mm3 ± SEM): 760 ± 119 mm3
  Survival (Survivors/total): 8/8
[6]; SCID-beige mice, single i.v. dose 10 mg/kg
  anti-tumor activity (tumor volume): not active
